# Measured values taken from paper PMC9911399, “Two distinct binding modes provide the RNA-binding protein RbFox with extraordinary sequence specificity”.
# Positions count from the first letter of the chain named. The list shows a part of the results.
# T1: RBFOX1 RRM RbFoxmut (Fox-RRM*) (Homo sapiens, UniProt Q9NWB1 109-208, R118D;E147R;N151S;E152T)
# T1 sequence: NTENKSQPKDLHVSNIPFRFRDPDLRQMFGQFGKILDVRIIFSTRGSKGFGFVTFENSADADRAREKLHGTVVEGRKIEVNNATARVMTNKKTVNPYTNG
# B1: CGCUGCU (DNA:RNA)
# RNA: GGGAGACCGGAAUUCAGAUUGUCCCGCUGCUUUAAAUCCCGUCGUAGCCACCA
# DNA 1: CAATCTGAATTCCGGTCTCCC
# DNA 2: TGGTGGCTACGACGGGATT
# B2: CGUUAGU (DNA:RNA)
# RNA: B1 RNA with C27U, G29A, C30G
# DNA 1: CAATCTGAATTCCGGTCTCCC
# DNA 2: TGGTGGCTACGACGGGATT
# B3: UGCAUCA (DNA:RNA)
# RNA: B1 RNA with C25U, U28A, G29U, U31A
# DNA 1: CAATCTGAATTCCGGTCTCCC
# DNA 2: TGGTGGCTACGACGGGATT
# B4: GUGGGAC (DNA:RNA)
# RNA: B1 RNA with C25G, G26U, C27G, U28G, C30A, U31C
# DNA 1: CAATCTGAATTCCGGTCTCCC
# DNA 2: TGGTGGCTACGACGGGATT
# B5: ACACCUG (DNA:RNA)
# RNA: GGGAGACCGGAAUUCAGAUUGUCCACACCUGUUAAAUCCCGUCGUAGCCACCA
# DNA 1: CAATCTGAATTCCGGTCTCCC
# DNA 2: TGGTGGCTACGACGGGATT
# B6: AUGUCUA (DNA:RNA)
# RNA: B5 RNA with C26U, A27G, C28U, G31A
# DNA 1: CAATCTGAATTCCGGTCTCCC
# DNA 2: TGGTGGCTACGACGGGATT
# B7: CGAACCC (DNA:RNA)
# RNA: B1 RNA with C27A, U28A, G29C, U31C
# DNA 1: CAATCTGAATTCCGGTCTCCC
# DNA 2: TGGTGGCTACGACGGGATT
# B8: UGCACUC (DNA:RNA)
# RNA: B5 RNA with A25U, C26G, A27C, C28A, G31C
# DNA 1: CAATCTGAATTCCGGTCTCCC
# DNA 2: TGGTGGCTACGACGGGATT
# B9: ACAAUUC (DNA:RNA)
# RNA: B5 RNA with C28A, C29U, G31C
# DNA 1: CAATCTGAATTCCGGTCTCCC
# DNA 2: TGGTGGCTACGACGGGATT
# B10: GAAAGGU (DNA:RNA)
# RNA: B1 RNA with C25G, G26A, C27A, U28A, C30G
# DNA 1: CAATCTGAATTCCGGTCTCCC
# DNA 2: TGGTGGCTACGACGGGATT
# B11: GUUCAUG (DNA:RNA)
# RNA: B5 RNA with A25G, C26U, A27U, C29A
# DNA 1: CAATCTGAATTCCGGTCTCCC
# DNA 2: TGGTGGCTACGACGGGATT
# B12: UGAUCAG (DNA:RNA)
# RNA: B5 RNA with A25U, C26G, C28U, U30A
# DNA 1: CAATCTGAATTCCGGTCTCCC
# DNA 2: TGGTGGCTACGACGGGATT
# B13: GUUCCGG (DNA:RNA)
# RNA: B5 RNA with A25G, C26U, A27U, U30G
# DNA 1: CAATCTGAATTCCGGTCTCCC
# DNA 2: TGGTGGCTACGACGGGATT
# B14: UUAAGUC (DNA:RNA)
# RNA: B5 RNA with A25U, C26U, C28A, C29G, G31C
# DNA 1: CAATCTGAATTCCGGTCTCCC
# DNA 2: TGGTGGCTACGACGGGATT
# B15: UACCUGU (DNA:RNA)
# RNA: B1 RNA with C25U, G26A, U28C, G29U, C30G
# DNA 1: CAATCTGAATTCCGGTCTCCC
# DNA 2: TGGTGGCTACGACGGGATT
# B16: GAACUAU (DNA:RNA)
# RNA: B5 RNA with A25G, C26A, C29U, U30A, G31U
# DNA 1: CAATCTGAATTCCGGTCTCCC
# DNA 2: TGGTGGCTACGACGGGATT
# B17: UGUUGUA (DNA:RNA)
# RNA: B1 RNA with C25U, C27U, C30U, U31A
# DNA 1: CAATCTGAATTCCGGTCTCCC
# DNA 2: TGGTGGCTACGACGGGATT
# B18: AAGCUAA (DNA:RNA)
# RNA: B5 RNA with C26A, A27G, C29U, U30A, G31A
# DNA 1: CAATCTGAATTCCGGTCTCCC
# DNA 2: TGGTGGCTACGACGGGATT
# B19: AUGAUCU (DNA:RNA)
# RNA: B1 RNA with C25A, G26U, C27G, U28A, G29U
# DNA 1: CAATCTGAATTCCGGTCTCCC
# DNA 2: TGGTGGCTACGACGGGATT
# B20: GGCGCGC (DNA:RNA)
# RNA: B1 RNA with C25G, U28G, G29C, C30G, U31C
# DNA 1: CAATCTGAATTCCGGTCTCCC
# DNA 2: TGGTGGCTACGACGGGATT
# B21: GGAGCUC (DNA:RNA)
# RNA: B5 RNA with A25G, C26G, C28G, G31C
# DNA 1: CAATCTGAATTCCGGTCTCCC
# DNA 2: TGGTGGCTACGACGGGATT
# B22: UAUCCUG (DNA:RNA)
# RNA: B5 RNA with A25U, C26A, A27U
# DNA 1: CAATCTGAATTCCGGTCTCCC
# DNA 2: TGGTGGCTACGACGGGATT
# B23: GGUCCGA (DNA:RNA)
# RNA: B5 RNA with A25G, C26G, A27U, U30G, G31A
# DNA 1: CAATCTGAATTCCGGTCTCCC
# DNA 2: TGGTGGCTACGACGGGATT
# B24: ACGUCGG (DNA:RNA)
# RNA: B5 RNA with A27G, C28U, U30G
# DNA 1: CAATCTGAATTCCGGTCTCCC
# DNA 2: TGGTGGCTACGACGGGATT
# B25: UGUUACC (DNA:RNA)
# RNA: B1 RNA with C25U, C27U, G29A, U31C
# DNA 1: CAATCTGAATTCCGGTCTCCC
# DNA 2: TGGTGGCTACGACGGGATT
# B26: GCCACUU (DNA:RNA)
# RNA: B5 RNA with A25G, A27C, C28A, G31U
# DNA 1: CAATCTGAATTCCGGTCTCCC
# DNA 2: TGGTGGCTACGACGGGATT
# B27: GUUUGUU (DNA:RNA)
# RNA: B1 RNA with C25G, G26U, C27U, C30U
# DNA 1: CAATCTGAATTCCGGTCTCCC
# DNA 2: TGGTGGCTACGACGGGATT
# B28: GCCCGGU (DNA:RNA)
# RNA: B1 RNA with C25G, G26C, U28C, C30G
# DNA 1: CAATCTGAATTCCGGTCTCCC
# DNA 2: TGGTGGCTACGACGGGATT
# B29: CGGCCCC (DNA:RNA)
# RNA: B1 RNA with C27G, U28C, G29C, U31C
# DNA 1: CAATCTGAATTCCGGTCTCCC
# DNA 2: TGGTGGCTACGACGGGATT
# B30: UUGGCAG (DNA:RNA)
# RNA: B5 RNA with A25U, C26U, A27G, C28G, U30A
# DNA 1: CAATCTGAATTCCGGTCTCCC
# DNA 2: TGGTGGCTACGACGGGATT
# B31: AGUCAGA (DNA:RNA)
# RNA: B5 RNA with C26G, A27U, C29A, U30G, G31A
# DNA 1: CAATCTGAATTCCGGTCTCCC
# DNA 2: TGGTGGCTACGACGGGATT
# Target: T1, RBFOX1 RRM RbFoxmut (Fox-RRM*)
# Assay: EMSA; HiTS-Eq, 1 nM pool, 10 min; buffer printed only for the single-RNA assays: 10 mM Tris pH 7.5, 150 mM NaCl, 3.4 mM EDTA, 0.001% NP-40, 30 C
# Settings: tags: His6 N-terminal (pET28a); label: 5' 32P
# Procedure, shortened: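 These values rest on relative association constants, computed from read-count changes of each RNA species versus the control reaction and normalised to the cognate motif. Reads came from free RNA recovered by 8% native PAGE after purified RbFox RRM (wild type or mutant) at increasing concentrations was equilibrated for 10 min in 50 µL with 1 nM of a 5′-radiolabelled pool with 7 randomized nucleotides and DNA-annealed flanks.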
row,Binder,binding signal
1,B1,0.103 KA relative to UGCAUGU
2,B2,0.17 KA relative to UGCAUGU
3,B3,0.565 KA relative to UGCAUGU
4,B4,0.0712 KA relative to UGCAUGU
5,B5,0.0842 KA relative to UGCAUGU
6,B6,0.122 KA relative to UGCAUGU
7,B7,0.0695 KA relative to UGCAUGU
8,B8,0.0834 KA relative to UGCAUGU
9,B9,0.0869 KA relative to UGCAUGU
10,B10,0.0507 KA relative to UGCAUGU
11,B11,0.126 KA relative to UGCAUGU
12,B12,0.0881 KA relative to UGCAUGU
13,B13,0.0658 KA relative to UGCAUGU
14,B14,0.0748 KA relative to UGCAUGU
15,B15,0.113 KA relative to UGCAUGU
16,B16,0.0684 KA relative to UGCAUGU

row,Binder,binding signal
1,B17,0.307 KA relative to UGCAUGU
2,B18,0.124 KA relative to UGCAUGU
3,B19,0.0715 KA relative to UGCAUGU
4,B20,0.0946 KA relative to UGCAUGU
5,B21,0.0628 KA relative to UGCAUGU
6,B22,0.101 KA relative to UGCAUGU
7,B23,0.145 KA relative to UGCAUGU
8,B24,0.117 KA relative to UGCAUGU
9,B25,0.145 KA relative to UGCAUGU
10,B26,0.0643 KA relative to UGCAUGU
11,B27,0.259 KA relative to UGCAUGU
12,B28,0.104 KA relative to UGCAUGU
13,B29,0.0599 KA relative to UGCAUGU
14,B30,0.106 KA relative to UGCAUGU
15,B31,0.0906 KA relative to UGCAUGU
